Measured values from PubChem BioAssay (NCI).
Several values for one entry are separate records, joined by “and”; a condition that tells them apart may be missing. Identical values can stand only once.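 Each compound was tested at five concentrations against cells in 96-well plates for 48 hours. GI50: concentration for 50% inhibition of growth. The concentration for full growth arrest is given as TGI.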

The compounds below were run on NCI-H322M lung (assay: inhibition of tumour cell growth, NCI panel, 48 h).

Row | Compound | TGI | GI50
1 | CN1C(=O)c2c(c3c4ccccc4n(C4OC(CO)C(O)C(O)C4O)c3c3[nH]c4ccccc4c23)C1=O (stereo unspecified) | 11.2 µM | –
2 | O=P(O)(O)C1CCCC(P(=O)(O)O)N1 (stereo unspecified) | > 100 µM | –
3 | C[C@H]1[C@H](C)CC[C@]2(C(=O)O)CC[C@]3(C)C(=CC[C@@H]4[C@@]5(C)CC[C@H](OC(=O)/C=C/c6ccc(O)cc6)C(C)(C)[C@@H]5CC[C@]43C)[C@H]12 | 44.1 µM | 2.91 µM
4 | CCC[CH2][Ge]([CH2]CCC)([CH2]CCC)[O]C(=O)C(O)c1ccccc1 (stereo unspecified) | 35.7 µM | 7.65 µM
5 | CCOC(=O)CCC(C(=O)OCC)n1nnc2ccc(Nc3c(C)[n+]([O-])c4cc(Cl)ccc4[n+]3[O-])cc21 (stereo unspecified) | > 100 µM | –
6 | O=C(O)C[O][Sb][O]CC(=O)O | > 100 µM | > 100 µM
7 | CC(=O)OC1C/C(C)=C/CCC(C)/C=C/C2(C)CCC(C(C)(C)O)C12 (stereo unspecified) | > 100 µM | –
8 | COc1ccc(/C=C2\SC(c3ccc(OC)cc3)N(NC(=O)Cc3ccccc3)C2=O)cc1 (stereo unspecified) | > 100 µM | –
9 | NNc1ccccc1Cl | > 100 µM | –
10 | O=C(Nc1nnc(-c2c(Cl)c(Cl)c(Cl)c(Cl)c2-c2nc3cc(C(=O)c4ccccc4)ccc3[nH]2)o1)c1ccccc1 | 46 µM | –
11 | COc1ccc(C2CC(c3ccc4ccccc4c3O)=NN2C(C)=O)cc1OC (stereo unspecified) | > 100 µM | –
12 | Cc1cc(N(CCCCl)CCCCl)ccc1C=Nc1cccc(Cl)c1 | 60.4 µM | –
13 | c1ccc(N=c2sc3ccccc3sc2=Nc2ccccc2)cc1 | 12 µM | –
14 | CN(C)CCCNc1ccnc2cc([N+](=O)[O-])ccc12 | 46.9 µM | –
15 | Nc1nc(N)c(N=O)c(Nc2ccc(I)cc2)n1 | > 100 µM | –
16 | CCc1ccc(Nc2cc(=O)[nH]c(=S)n2C)cc1 | > 100 µM | –
17 | CC(C)(C)CC(C)(C)N=C(N)NO | > 100 µM | –
18 | O=C(OCC1OC(OC(=O)c2cc(O)c(O)c(OC(=O)c3cc(O)c(O)c(O)c3)c2)C(OC(=O)c2cc(O)c(O)c(OC(=O)c3cc(O)c(O)c(O)c3)c2)C(OC(=O)c2cc(O)c(O)c(OC(=O)c3cc(O)c(O)c(O)c3)c2)C1OC(=O)c1cc(O)c(O)c(OC(=O)c2cc(O)c(O)c(O)c2)c1)c1cc(O)c(O)c(OC(=O)c2cc(O)c(O)c(O)c2)c1 (stereo unspecified) | 15.6 µM | 1.63 µM
19 | CC1(C)CC(=O)c2c(ccc(C(=O)C[C@H](N)CO)c2N)O1 | 17.5 µM and 15.9 µM | 1.08 µM and 0.149 µM
20 | CC(C)c1c(O[Si](C(C)C)(C(C)C)C(C)C)c2c3c(ccc4c3c1OC4(C)C)C(C)CC2 (stereo unspecified) | > 100 µM | –
21 | CC1(O)CC2(O)C=CC3=C(C(=O)c4cccc(O)c4C3=O)C2(O)C(=O)C1O (stereo unspecified) | 24.2 µM | –
22 | COc1cc2nc(N3CCCC3)nc(Nc3ccccc3)c2cc1OC | 3.04 µM | 1.67 µM
23 | O=c1cc(-c2ccccc2)oc2ccc(-c3ccc4oc(-c5ccccc5)cc(=O)c4c3)cc12 | 62.9 µM | –
24 | CC1(c2nc3ccccc3[nH]2)CCC(C(N)=O)C(C)(C)O1 (stereo unspecified) | > 100 µM | –
25 | Cc1ccc(NC(=O)CC/C(CC(=O)c2ccc(F)cc2)=N\NC(=O)C(=O)NN)cc1C | > 100 µM | –
